PubChem BioAssay (Tox21)
Values joined by “and” are separate entries in the source; they are usually repeats but may differ in a detail not shown here. Identical values can stand only once. This list was built around the results that the source calls inconclusive (neither active nor inactive); the mix of calls is not that of the screen. Potencies of inconclusive entries are doubtful fits and often do not repeat. Some compounds were tested as several samples or in several runs, with calls that do not always agree. Active and inactive are the calls of the source. Calls come from the whole dose curve; as a rule, active = well fitted curve in the direction sought with a large enough effect in the repeat runs; inconclusive = weak or mixed curves; inactive = no such curve, though single readings can be large; an effect the other way counts as inactive or inconclusive.

How the values were obtained:
[1] = qHTS assay to identify small molecule antagonists of the estrogen related receptor (ERR) signaling pathway from Tox21 library (AID 1224848); note: nearly all actives have a fitted effect of over 50% in size
Procedure, shortened: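 Luciferase luminescence (ONE-Glo, 30 min room temperature) was the read-out. Cells of the NTP-supplied ERR line, 2,000 per well, were given 6 h at 37 C before compound addition in DMSO and 18 h exposure at 37 C.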

[2] = qHTS RealTime-Glo MT Cell Viability Assay in HepG2 cells - 24 hour (AID 1224867); note: nearly all actives have a fitted effect of over 50% in size
Procedure, shortened: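 Cells + NanoLuc/prosubstrate dispensed (600 cells/well) → 5 h at 37 C/5% CO2 → compounds in DMSO transferred → 40 h incubation at 37 C, luminescence read at 0, 8, 16, 24, 32, 40 h.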

[3] = qHTS RealTime-Glo MT Cell Viability Assay in HEK293 cells - 32 hour (AID 1224868); note: nearly all actives have a fitted effect of over 50% in size
Procedure, shortened: (§1)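 Tox21 10K qHTS, HEK293, 600 cells/well, RealTime-Glo reagent co-dispensed with cells; 5 h preincubation, compound by pintool, 37 C, luminescence at 0–40 h.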

[4] = qHTS RealTime-Glo MT Cell Viability Assay in HepG2 cells - 40 hour (AID 1224870); note: nearly all actives have a fitted effect of over 50% in size
Procedure, shortened: (§2)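 Real-time viability: cells seeded at 600 per well together with NanoLuc and cell-permeant prosubstrate, compounds added after 5 h incubation. Luminescence tracked at 0, 8, 16, 24, 32 and 40 h of exposure.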

[5] = qHTS RealTime-Glo MT Cell Viability Assay in HEK293 cells - 16 hour (AID 1224872); note: nearly all actives have a fitted effect of over 50% in size
Procedure, shortened: as §1

[6] = qHTS RealTime-Glo MT Cell Viability Assay in HepG2 cells - 8 hour (AID 1224873); note: nearly all actives have a fitted effect of over 55% in size
Procedure, shortened: as §2

[7] = qHTS RealTime-Glo MT Cell Viability Assay in HEK293 cells - 40 hour (AID 1224874); conditions: RealTime-Glo luminescence; max response: stronger effect = lower value; note: nearly all actives have a fitted effect of over 50% in size
Procedure, shortened: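 HEK293 + NanoLuc + prosubstrate, 600 cells/well; 5 h, 37 C/5% CO2; compound 23 nL in DMSO by pintool; 37 C; luminescence read at 0, 8, 16, 24, 32 and 40 h time points.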

[8] = A CellTox Green Cytotoxicity Assay to monitor cytotoxicity in HEK293 cells - 0 hour (AID 1224869); note: nearly all actives have a fitted effect of over 50% in size
Procedure, shortened: (§3)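 Tox21 screen in HEK293: membrane-impermeant cyanine dye fluoresces on binding dead-cell DNA; compound pinned 5 h post-seeding, plates held at 37 C, signal read repeatedly through 40 h.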

[9] = A CellTox Green Cytotoxicity Assay to monitor cytotoxicity in HEK293 cells - 40 hour (AID 1224871); note: nearly all actives have a fitted effect of over 45% in size
Procedure, shortened: as §3

[10] = A CellTox Green Cytotoxicity Assay to monitor cytotoxicity in HEK293 cells - 24 hour (AID 1224875); note: nearly all actives have a fitted effect of over 45% in size
Procedure, shortened: as §3
Potency is the fitted concentration of half-maximal effect; tags give direction and shape of the fitted curve.

For CC(C)(Cl)[N+](=O)[O-], which Potency [1] is on record?
The Potency was inconclusive: 54.7 µM [inhibitor, partial curve].

Which Potency [1] does the source give for C[C@]12C/C(=C/O)C(=O)C[C@@H]1CC[C@@H]1[C@@H]2CC[C@@]2(C)[C@H]1CC[C@]2(C)O here?
Its Potency is active: 34.7 µM and active: 33.5 µM.

And the Potency [2]?
The Potency was inconclusive: 62.2 µM [falling, partial curve, poor fit].

And the Potency [3]?
Its Potency is inconclusive: 55.5 µM [cytotoxic, single point].

And the Potency [4]?
The Potency was inconclusive: 62.2 µM [falling, single point].

And the Potency [5]?
Its Potency is inconclusive: 55.5 µM [cytotoxic].

What about the Potency [6] of the same compound?
Its Potency is inconclusive: 49.4 µM [falling, partial curve, poor fit].

And the Potency [7]?
Its Potency is inconclusive: 55.5 µM [cytotoxic, single point].

Which Potency [1] does the source give for CC1CCC(=O)O1 (stereo unspecified) here?
The Potency was “inactive”.

For O=C1C(Cl)C(CCl)CN1c1cccc(C(F)(F)F)c1 (stereo unspecified), which Potency [1] is on record?
The Potency was inconclusive: 34.4 µM [inhibitor, partial curve].

With CN1C(=O)CN=C(c2ccccc2)c2cc(Cl)ccc21 as the compound, how does the Potency [1] read?
The Potency was inconclusive: 0.311 µM [inhibitor, partial curve, poor fit].

And the Potency [3]?
The Potency was inconclusive: 44.3 µM [cytotoxic, partial curve].

What about the Potency [8] of the same compound?
The Potency was inconclusive: 13.4 µM [activator, single point].

And the Potency [7]?
Its Potency is inconclusive: 24.9 µM [cytotoxic, partial curve].

Which Potency [1] does the source give for O=C1c2ccccc2C(=O)C1C(=O)C(c1ccccc1)c1ccccc1 here?
The Potency was inconclusive: 13.3 µM [inhibitor, full curve].

For CC1=C2[C@H]3OC(=O)[C@@H](C)[C@@H]3CC[C@@]2(C)C=CC1=O, which Potency [1] is on record?
Its Potency is “inactive”.

For CC(C)(C)C(O)/C(=C\c1ccc(Cl)cc1Cl)n1cncn1 (stereo unspecified), which Potency [1] is on record?
Its Potency is active: 33 µM.

And the Potency [2]?
The Potency was inconclusive: 59.3 µM [falling, partial curve].

And the Potency [3]?
Its Potency is active: 29.7 µM.

What about the Potency [4] of the same compound?
Its Potency is inconclusive: 59.3 µM [falling, partial curve, poor fit].

And the Potency [9]?
Its Potency is inconclusive: 66.5 µM [activator, single point].

And the Potency [6]?
Its Potency is inconclusive: 59.3 µM [falling, partial curve, poor fit].

And the Potency [10]?
Its Potency is inconclusive: 66.5 µM [activator, single point].

Which Potency [1] does the source give for CCNc1nc(Cl)nc(NCC)n1 here?
The Potency was inconclusive: 21.6 µM [inhibitor, partial curve].

With COc1nc(C)nc(NC(=O)NS(=O)(=O)c2ccccc2Cl)n1 as the compound, how does the Potency [1] read?
Its Potency is “inactive”.

For C[C@]12C=CC(=O)C=C1CC[C@@H]1[C@@H]2CC[C@@]2(C)[C@H]1CC[C@]2(C)O, which Potency [1] is on record?
Its Potency is inconclusive: 29.8 µM [inhibitor].

Which Potency [1] does the source give for COC(=O)C(C)Oc1ccc(Oc2ccc(Cl)cc2Cl)cc1 (stereo unspecified) here?
Its Potency is inconclusive: 54.5 µM [inhibitor, partial curve, poor fit].

With CSc1ccc(C(=O)C(C)(C)N2CCOCC2)cc1 as the compound, how does the Potency [1] read?
Its Potency is inconclusive: 48.6 µM [inhibitor].

Which Potency [1] does the source give for CC(C)(C)c1ccc(CSc2cnn(C(C)(C)C)c(=O)c2Cl)cc1 here?
The Potency was active: 0.0054 µM.

And the Potency [2]?
The Potency was inconclusive: 30.9 µM [falling, partial curve, poor fit].

What about the Potency [6] of the same compound?
The Potency was inconclusive: 17.4 µM [falling, partial curve].

What about the Potency [10] of the same compound?
The Potency was “inactive”.

Which Potency [1] does the source give for C#CCN1C(=O)COc2cc(F)c(N3C(=O)C4=C(CCCC4)C3=O)cc21 here?
Its Potency is inconclusive: 27.3 µM [inhibitor, partial curve].

Which Potency [1] does the source give for O=C(c1ccccc1)C(Cl)Cl here?
Its Potency is inconclusive: 77 µM [inhibitor, single point].

And the Potency [2]?
Its Potency is inconclusive: 54.9 µM [falling, partial curve, poor fit].

And the Potency [6]?
The Potency was inconclusive: 61.6 µM [falling, single point].

And the Potency [10]?
Its Potency is inconclusive: 38.9 µM [activator, partial curve].

What does the source list for O=C1NCN(c2ccccc2)C12CCN(CC1COc3ccccc3O1)CC2 (stereo unspecified)?
Potency [1]: inconclusive: 13.3 µM [inhibitor, partial curve]; Potency [2]: inconclusive: 23.9 µM [falling, partial curve, poor fit]; Potency [3]: inconclusive: 23.9 µM [cytotoxic, single point]; Potency [5]: inconclusive: 26.8 µM [cytotoxic, single point]; Potency [6]: inconclusive: 21.3 µM [falling, partial curve]; Potency [7]: inconclusive: 26.8 µM [cytotoxic, single point]

With COc1cccc(C(=O)NN(C(=O)c2cc(C)cc(C)c2)C(C)(C)C)c1C as the compound, how does the Potency [1] read?
The Potency was inconclusive: 19.3 µM [inhibitor, full curve, poor fit].

And the Potency [2]?
Its Potency is inconclusive: 43.6 µM [falling, partial curve, poor fit].

What about the Potency [3] of the same compound?
The Potency was “inactive”.

Which results are given for O=[N+]([O-])c1cc(C(F)(F)F)cc([N+](=O)[O-])c1Cl?
Potency [1]: active: 61.4 µM; Potency [3]: inconclusive: 39.1 µM [cytotoxic, partial curve]; Potency [4]: inactive; Potency [5]: inconclusive: 39.1 µM [cytotoxic, partial curve]; Potency [6]: inactive; Potency [7]: inconclusive: 43.8 µM [cytotoxic, partial curve]

With CC(c1ccc(O)cc1)c1ccc(O)cc1 as the compound, how does the Potency [1] read?
Its Potency is inconclusive: 72.1 µM [inhibitor, single point].

And the Potency [3]?
The Potency was active: 45.9 µM and inconclusive: 24.5 µM [cytotoxic, partial curve].

What about the Potency [8] of the same compound?
Its Potency is inconclusive: 51.5 µM [activator, single point].

What about the Potency [9] of the same compound?
Its Potency is inconclusive: 51.5 µM [activator, single point].

What about the Potency [5] of the same compound?
The Potency was active: 45.9 µM and inactive.

What about the Potency [10] of the same compound?
Its Potency is inconclusive: 51.5 µM [activator, single point].

With CC1Sc2c(C(=O)O)c(=O)c3cc(F)c(N4CCNCC4)cc3n21 (stereo unspecified) as the compound, how does the Potency [1] read?
The Potency was “inactive”.

Which Potency [1] does the source give for CC(O)(CS(=O)(=O)c1ccc(F)cc1)C(=O)Nc1ccc(C#N)c(C(F)(F)F)c1 (stereo unspecified) here?
The Potency was inconclusive: 15.9 µM [inhibitor, partial curve].

Which Potency [1] does the source give for Cc1ccc(N)cc1C here?
The Potency was “inactive”.

For C=CC[C@]1(O)CC[C@H]2[C@@H]3CCC4=CC(=O)CCC4=C3C=C[C@@]21C, which Potency [1] is on record?
Its Potency is inconclusive: 10.6 µM [inhibitor].

And the Potency [2]?
Its Potency is inconclusive: 23.9 µM [falling, partial curve].

And the Potency [4]?
The Potency was inconclusive: 26.8 µM [falling, partial curve, poor fit].

And the Potency [9]?
The Potency was inconclusive: 26.8 µM [activator, single point].

What about the Potency [5] of the same compound?
Its Potency is active: 19 µM.

What about the Potency [6] of the same compound?
Its Potency is inconclusive: 26.8 µM [falling, single point].

What does the source list for CCCCC(C#N)(Cn1cncn1)c1ccc(Cl)cc1 (stereo unspecified)?
Potency [1]: inconclusive: 68.6 µM [inhibitor]; Potency [3]: inconclusive: 43.5 µM [cytotoxic, partial curve]; Potency [9]: inconclusive: 38.8 µM [activator, partial curve, poor fit]

With CS/C(C)=N/OC(=O)N(C)SN(C)C(=O)O/N=C(\C)SC as the compound, how does the Potency [1] read?
The Potency was inconclusive: 68.6 µM [inhibitor, single point].

And the Potency [2]?
The Potency was inconclusive: 54.9 µM [falling, single point].

And the Potency [4]?
Its Potency is inconclusive: 54.9 µM [falling, single point].

And the Potency [5]?
The Potency was active: 38.9 µM.

And the Potency [6]?
The Potency was inconclusive: 54.9 µM [falling, single point].

And the Potency [10]?
Its Potency is inconclusive: 54.9 µM [activator, single point].

What does the source list for CCN(CC)C(=O)[C@@H]1C=C2c3cccc4[nH]cc(c34)C[C@H]2N(C)C1?
Potency [1]: inconclusive: 80 µM [inhibitor, partial curve]; Potency [3]: inconclusive: 128 µM [cytotoxic, single point]; Potency [4]: inactive; Potency [7]: inconclusive: 144 µM [cytotoxic, partial curve, poor fit]

Which Potency [1] does the source give for Nc1cc(Cl)cc(C(=O)O)c1Cl here?
Its Potency is “inactive”.

Which results are given for Clc1ccc(CO/N=C(\Cn2ccnc2)c2ccc(Cl)cc2Cl)c(Cl)c1?
Potency [1]: active: 18.8 µM; Potency [2]: active: 23.9 µM; Potency [4]: inconclusive: 23.9 µM [falling, partial curve]; Potency [6]: inconclusive: 23.9 µM [falling, partial curve]

Which Potency [1] does the source give for COP(=S)(OC)Oc1ccc([N+](=O)[O-])c(C)c1 here?
Its Potency is inconclusive: 13.7 µM [inhibitor, full curve, poor fit].

Which Potency [1] does the source give for Oc1c(I)cc(I)cc1I here?
The Potency was inconclusive: 68.6 µM [inhibitor, single point].

With CO/C=C(/C(=O)OC)c1ccccc1Oc1cc(Oc2ccccc2C#N)ncn1 as the compound, how does the Potency [1] read?
Its Potency is active: 2.06 µM.

What about the Potency [2] of the same compound?
Its Potency is inconclusive: 46.6 µM [phenotype inactive, partial curve, poor fit].

What about the Potency [9] of the same compound?
Its Potency is active: 4.9 µM.

And the Potency [5]?
The Potency was inconclusive: 34.7 µM [cytotoxic, partial curve].

And the Potency [6]?
Its Potency is inconclusive: 46.6 µM [phenotype inactive, partial curve].

And the Potency [7]?
The Potency was active: 33.8 µM.

And the Potency [10]?
The Potency was inconclusive: 23.3 µM [activator, single point].

Which results are given for COP(=O)(OC)OC?
Potency [1]: inconclusive: 19.5 µM [inhibitor, partial curve] and inactive; Potency [3]: inconclusive: 6.22 µM [cytotoxic, full curve]; Potency [8]: inconclusive: 49.4 µM [activator, single point]; Potency [9]: inconclusive: 55.4 µM [activator, single point]; Potency [10]: inconclusive: 49.4 µM [activator, single point]

Which Potency [1] does the source give for CN=C=S here?
The Potency was “inactive”.

Which results are given for C[Si](Cn1cncn1)(c1ccc(F)cc1)c1ccc(F)cc1?
Potency [1]: active: 28.2 µM and active: 30.6 µM; Potency [2]: inconclusive: 43.6 µM [falling, partial curve, poor fit]; Potency [3]: active: 25.4 µM and active: 21.9 µM; Potency [9]: inconclusive: 56.8 µM [activator, partial curve, poor fit] and active: 54.9 µM; Potency [6]: inconclusive: 54.9 µM [falling, single point]; Potency [10]: inconclusive: 54.9 µM [activator, single point]
